Experimental findings from ChEMBL document CHEMBL4888484, “Replenishing the malaria drug discovery pipeline: Screening and hit evaluation of the MMV Hit Generation Library 1 (HGL1) against asexual blood stage Plasmodium falciparum ,using a nano luciferase reporter read-out” (2022) are described below.

Molecules are shown by their SMILES. Screen size: about 150,000 compounds; about 540 (0.36%) showed an effect of 50% or more. The list shows a part of the results.

The test system of this assay is Plasmodium falciparum. Briefly: Primary screen in NF54 nanoGlo assay, in single point, at 2uM, 72h; a lower Z score goes with more inhibition. The class given is functional, Erythrocyte. The note with it: timepoint 72 hour.
Broadly, the % Inhibition is the relative decrease from the control value, in per cent. Take `CC(C)C(=O)N1CCCCC[C@H]1c1nnc(-c2ccccc2)o1`: the “% Inhibition” value is recorded as -8% and the Z score turned out to be 1.56.

For the compound `CCN(CC)C(=O)[C@@H]1CCC[C@@H](NCc2cccc(Cl)c2)CN(C)C(=O)C1`, the “% Inhibition” value is -7% and the Z score turned out to be 1.31.

Consider `CN(C(=O)Nc1cn[nH]c1)[C@H](c1ccncc1)c1ccc(Cl)cc1`, for which the “% Inhibition” value was -2% and the Z score amounted to 0.24.

`CCc1ccc(-c2cc(C(F)(F)F)on2)cc1S(=O)(=O)N1CCN(c2cccc(Cl)c2)CC1`: the “% Inhibition” value is listed as -7% and the Z score worked out at 1.19.

`Cc1nc2cc(CNC(=O)c3ccccc3N3CCCC3)ccc2n1C`: the “% Inhibition” value is -16% and the Z score is 3.08.

Turning to `O=C(c1cc(Cl)c[nH]1)N1CCO[C@H](c2ncon2)C1`, the “% Inhibition” value was found to be 33% and the Z score was -3.68.

In the case of `CC(=O)c1c(F)cccc1N1CCC[C@H](CN2CCOCC2)C1`, the “% Inhibition” value was -7% and the Z score is on record as 0.74.

Turning to `CN1CC[C@H](N(C)Cc2cnc(-c3ccccc3)s2)C1`, the “% Inhibition” value was 3% and the Z score is listed as -0.44.

Consider `CNC(=O)[C@@H]1C[C@H](n2cc(-c3ccc(CN4Cc5ccccc5C4)cc3)nn2)CN1`, for which the “% Inhibition” value is recorded as -6% and the Z score worked out at 0.81.

`Cc1nc2ncnn2c(N2CCN(Cc3ccc(C(C)(C)C)cc3)CC2)c1Cc1ccccc1`: the “% Inhibition” value came out at 1% and the Z score was -0.13.

Turning to `CCc1ccccc1C(=O)NC[C@H]1CC[C@H](CN)CC1`, the “% Inhibition” value amounted to 39% and the Z score is given as -4.41.

Regarding `O=C(c1ccc2c(c1)CCCC2)N1CCC[C@H]1c1nc2ccccc2s1`, the “% Inhibition” value amounted to 2% and the Z score is reported as -0.19.

With `COc1ccccc1-c1nc2cnccn2c1NCCC(=O)N1CCCC1`, the “% Inhibition” value was -24% and the Z score came out at 3.39.

Consider `C#CCN(CC#N)C(=O)c1c(F)cccc1Br`, for which the “% Inhibition” value amounted to 5% and the Z score was -0.57.

Turning to `CCCNC(=O)Nc1cccc(OC(=O)Cc2c(C)nn(C)c2C)c1`, the “% Inhibition” value was -11% and the Z score is given as 1.1.

Turning to `O=C1NCCc2ccc(CNC(=O)c3ccc(C4CC4)nc3O)cc21`, the “% Inhibition” value is given as -13% and the Z score is given as 2.13.

For `Nc1nccnc1C(=O)Nc1cccc(N2CCCC2=O)c1`, the “% Inhibition” value was -12% and the Z score was determined as 2.25.

Take `O=C(Nc1ccc(-n2cnnn2)cc1)c1cnccn1`: the “% Inhibition” value was -11% and the Z score was 1.8.

`CC(=O)NCCc1nc(CC(C)C)nn1-c1ccccn1`: the “% Inhibition” value was 12% and the Z score is given as -1.6.

On to `COc1ccc(C(=O)N2CCC(C(=O)NC(C3CC3)C3CC3)CC2)c2ccccc12`, for which the “% Inhibition” value is reported as -6% and the Z score is given as 0.93.

With `NC(=O)c1cc(NC(=O)C2=NN(c3ccccc3)C(=O)CC2)c[nH]1`, the “% Inhibition” value was 1% and the Z score is recorded as -0.07.

Take `COCc1cc(N(C)C[C@H]2COCCO2)ncn1`: the “% Inhibition” value is 10% and the Z score was -1.83.

Consider `COc1ccc2c(c1)sc(/C=C/c1ccc(O)cc1)[n+]2C`, for which the “% Inhibition” value is -12% and the Z score is listed as 1.62.

As for `O=C(CC1(N2Cc3ccccc3C2=O)CCCCC1)NCCCc1ccccc1`, the “% Inhibition” value is recorded as -10% and the Z score amounted to 1.39.

Turning to `C[C@H](NC(=O)CCc1nncn1C)C1=CCCCC1`, the “% Inhibition” value is -3% and the Z score stood at 0.51.

As to `CN(C)C1=NC2(CCN(Cc3ccc(S(C)(=O)=O)cc3)CC2)C(=O)N1`, the “% Inhibition” value is reported as -1% and the Z score stood at 0.19.

Take `CC(=O)NC(N1CCOCC1)(C(F)(F)F)C(F)(F)F`: the “% Inhibition” value is listed as 4% and the Z score is on record as -0.56.

Regarding `CCOC(=O)[C@H](C)n1cnc(-c2ccccc2)c1-c1c(C)nn(C(C)C)c1C`, the “% Inhibition” value is on record as -1% and the Z score worked out at 0.07.

Consider `Cc1ccc([C@H](CNC(=O)COc2ccccc2C)N2CCCC2)o1`, for which the “% Inhibition” value is recorded as -6% and the Z score came to 1.04.

Take `O=C(NCc1ccc(N2CCCCC2)nc1)c1cnccn1`: the “% Inhibition” value is on record as -15% and the Z score is 2.76.

On to `CC(C)(C)C(=O)Nc1nnc([C@H]2CC(=O)N(c3ccc(OC(F)(F)F)cc3)C2)o1`, for which the “% Inhibition” value is given as -8% and the Z score is listed as 1.04.

On to `CC[C@@H](c1ccncc1)n1ccnc1-c1cccc2nonc12`, for which the “% Inhibition” value was -7% and the Z score is reported as 1.02.

Consider `NC(=O)[C@@H]1CCCN1C(=O)c1cn(-c2cccc(Cl)c2F)nn1`, for which the “% Inhibition” value is recorded as -9% and the Z score came to 1.38.

In the case of `COc1cc(NC(=O)C(C)Oc2ccccc2)c(OC)cc1NC(=O)C(C)Oc1ccccc1` (stereo unspecified), the “% Inhibition” value is on record as -2% and the Z score turned out to be 0.25.

As for `Oc1ccc(CNc2ccc3c[nH]nc3c2)cc1`, the “% Inhibition” value is on record as -3% and the Z score is on record as 0.67.

Consider `O=C(C[n+]1cccc2cc(Cl)ccc21)c1ccc2c(c1)CCCC2`, for which the “% Inhibition” value is reported as 6% and the Z score is recorded as -0.69.

As for `CCN(Cn1c(=S)sc2ccccc21)C1CCCCC1`, the “% Inhibition” value was -13% and the Z score was 2.16.

For `FC(F)(F)c1csc([C@H]2CCCN(CCc3ccncc3)C2)n1`, the “% Inhibition” value is -19% and the Z score came out at 1.76.

Consider `CC(C)CC(C)OCCC(=O)N1CCNC(=O)C1C` (stereo unspecified), for which the “% Inhibition” value is -10% and the Z score turned out to be 0.99.

Take `N#CCCN(CC1CCC1)C(=O)CCOc1ccccc1Cl`: the “% Inhibition” value was -1% and the Z score was 0.09.

As to `Cc1ccn2c(C(=O)N3CCC[C@H](c4cc(O)ncn4)C3)c(C)nc2c1`, the “% Inhibition” value is -4% and the Z score is on record as 0.49.

On to `C[C@H](NC(=O)Cn1cnnn1)c1nc(-c2ccccn2)no1`, for which the “% Inhibition” value was -20% and the Z score was 1.98.

Take `CN1c2ccccc2N(C2CCN(C(=O)c3cccc(C#N)c3)CC2)S1(=O)=O`: the “% Inhibition” value was -7% and the Z score is 1.06.
